Substitutions are numbered along the chain they refer to; changes in the protein carry UniProt numbers. The list shows a part of the results.

The results in this text go back to paper PMC9911399, “Two distinct binding modes provide the RNA-binding protein RbFox with extraordinary sequence specificity”.

T1: RBFOX1 RRM RbFoxmut (Fox-RRM*) (Homo sapiens, UniProt Q9NWB1 109-208, R118D;E147R;N151S;E152T)
T1 sequence: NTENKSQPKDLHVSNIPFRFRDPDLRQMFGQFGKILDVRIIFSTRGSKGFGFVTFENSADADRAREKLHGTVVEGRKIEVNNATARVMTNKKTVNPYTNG

B1: CUGUUUA (DNA:RNA)
RNA: GGGAGACCGGAAUUCAGAUUGUCCCUGUUUAUUAAAUCCCGUCGUAGCCACCA
DNA 1: CAATCTGAATTCCGGTCTCCC
DNA 2: TGGTGGCTACGACGGGATT
B2: CGACCGG (DNA:RNA)
RNA: B1 RNA with U26G, G27A, U28C, U29C, U30G, A31G
DNA 1: CAATCTGAATTCCGGTCTCCC
DNA 2: TGGTGGCTACGACGGGATT
B3: UAGGGCA (DNA:RNA)
RNA: B1 RNA with C25U, U26A, U28G, U29G, U30C
DNA 1: CAATCTGAATTCCGGTCTCCC
DNA 2: TGGTGGCTACGACGGGATT
B4: AAGAGAC (DNA:RNA)
RNA: B1 RNA with C25A, U26A, U28A, U29G, U30A, A31C
DNA 1: CAATCTGAATTCCGGTCTCCC
DNA 2: TGGTGGCTACGACGGGATT
B5: UUUCGAC (DNA:RNA)
RNA: B1 RNA with C25U, G27U, U28C, U29G, U30A, A31C
DNA 1: CAATCTGAATTCCGGTCTCCC
DNA 2: TGGTGGCTACGACGGGATT
B6: CUGUAAG (DNA:RNA)
RNA: B1 RNA with U29A, U30A, A31G
DNA 1: CAATCTGAATTCCGGTCTCCC
DNA 2: TGGTGGCTACGACGGGATT
B7: ACUGUUA (DNA:RNA)
RNA: B1 RNA with C25A, U26C, G27U, U28G
DNA 1: CAATCTGAATTCCGGTCTCCC
DNA 2: TGGTGGCTACGACGGGATT
B8: AACCAAG (DNA:RNA)
RNA: GGGAGACCGGAAUUCAGAUUGUCCAACCAAGUUAAAUCCCGUCGUAGCCACCA
DNA 1: CAATCTGAATTCCGGTCTCCC
DNA 2: TGGTGGCTACGACGGGATT
B9: GUAACCG (DNA:RNA)
RNA: B8 RNA with A25G, A26U, C27A, C28A, A29C, A30C
DNA 1: CAATCTGAATTCCGGTCTCCC
DNA 2: TGGTGGCTACGACGGGATT
B10: GGUAAUC (DNA:RNA)
RNA: B8 RNA with A25G, A26G, C27U, C28A, A30U, G31C
DNA 1: CAATCTGAATTCCGGTCTCCC
DNA 2: TGGTGGCTACGACGGGATT
B11: GUUGGCG (DNA:RNA)
RNA: B8 RNA with A25G, A26U, C27U, C28G, A29G, A30C
DNA 1: CAATCTGAATTCCGGTCTCCC
DNA 2: TGGTGGCTACGACGGGATT
B12: ACCUGUG (DNA:RNA)
RNA: B8 RNA with A26C, C28U, A29G, A30U
DNA 1: CAATCTGAATTCCGGTCTCCC
DNA 2: TGGTGGCTACGACGGGATT
B13: CACGGCC (DNA:RNA)
RNA: B8 RNA with A25C, C28G, A29G, A30C, G31C
DNA 1: CAATCTGAATTCCGGTCTCCC
DNA 2: TGGTGGCTACGACGGGATT
B14: UGUCAAU (DNA:RNA)
RNA: B8 RNA with A25U, A26G, C27U, G31U
DNA 1: CAATCTGAATTCCGGTCTCCC
DNA 2: TGGTGGCTACGACGGGATT
B15: CGCUCGU (DNA:RNA)
RNA: B1 RNA with U26G, G27C, U29C, U30G, A31U
DNA 1: CAATCTGAATTCCGGTCTCCC
DNA 2: TGGTGGCTACGACGGGATT
B16: UUCACAU (DNA:RNA)
RNA: B8 RNA with A25U, A26U, C28A, A29C, G31U
DNA 1: CAATCTGAATTCCGGTCTCCC
DNA 2: TGGTGGCTACGACGGGATT
B17: UUCCGAG (DNA:RNA)
RNA: B8 RNA with A25U, A26U, A29G
DNA 1: CAATCTGAATTCCGGTCTCCC
DNA 2: TGGTGGCTACGACGGGATT
B18: UCUGGUA (DNA:RNA)
RNA: B1 RNA with C25U, U26C, G27U, U28G, U29G
DNA 1: CAATCTGAATTCCGGTCTCCC
DNA 2: TGGTGGCTACGACGGGATT
B19: CGCUCCU (DNA:RNA)
RNA: B1 RNA with U26G, G27C, U29C, U30C, A31U
DNA 1: CAATCTGAATTCCGGTCTCCC
DNA 2: TGGTGGCTACGACGGGATT
B20: GUCCAUU (DNA:RNA)
RNA: B8 RNA with A25G, A26U, A30U, G31U
DNA 1: CAATCTGAATTCCGGTCTCCC
DNA 2: TGGTGGCTACGACGGGATT
B21: GACUGGU (DNA:RNA)
RNA: B8 RNA with A25G, C28U, A29G, A30G, G31U
DNA 1: CAATCTGAATTCCGGTCTCCC
DNA 2: TGGTGGCTACGACGGGATT
B22: UGCCACC (DNA:RNA)
RNA: B8 RNA with A25U, A26G, A30C, G31C
DNA 1: CAATCTGAATTCCGGTCTCCC
DNA 2: TGGTGGCTACGACGGGATT
B23: CUUUUGG (DNA:RNA)
RNA: B1 RNA with G27U, U30G, A31G
DNA 1: CAATCTGAATTCCGGTCTCCC
DNA 2: TGGTGGCTACGACGGGATT
B24: ACAGUAA (DNA:RNA)
RNA: B8 RNA with A26C, C27A, C28G, A29U, G31A
DNA 1: CAATCTGAATTCCGGTCTCCC
DNA 2: TGGTGGCTACGACGGGATT
B25: CUACACU (DNA:RNA)
RNA: B8 RNA with A25C, A26U, C27A, A30C, G31U
DNA 1: CAATCTGAATTCCGGTCTCCC
DNA 2: TGGTGGCTACGACGGGATT
B26: GGAGUCG (DNA:RNA)
RNA: B8 RNA with A25G, A26G, C27A, C28G, A29U, A30C
DNA 1: CAATCTGAATTCCGGTCTCCC
DNA 2: TGGTGGCTACGACGGGATT
B27: GACAUAC (DNA:RNA)
RNA: B8 RNA with A25G, C28A, A29U, G31C
DNA 1: CAATCTGAATTCCGGTCTCCC
DNA 2: TGGTGGCTACGACGGGATT
B28: UUUUGGG (DNA:RNA)
RNA: B1 RNA with C25U, G27U, U29G, U30G, A31G
DNA 1: CAATCTGAATTCCGGTCTCCC
DNA 2: TGGTGGCTACGACGGGATT
B29: UUCCCGA (DNA:RNA)
RNA: B8 RNA with A25U, A26U, A29C, A30G, G31A
DNA 1: CAATCTGAATTCCGGTCTCCC
DNA 2: TGGTGGCTACGACGGGATT
B30: AAGAGUG (DNA:RNA)
RNA: B8 RNA with C27G, C28A, A29G, A30U
DNA 1: CAATCTGAATTCCGGTCTCCC
DNA 2: TGGTGGCTACGACGGGATT
B31: CACGGGU (DNA:RNA)
RNA: B8 RNA with A25C, C28G, A29G, A30G, G31U
DNA 1: CAATCTGAATTCCGGTCTCCC
DNA 2: TGGTGGCTACGACGGGATT

The assay has as its target T1, RBFOX1 RRM RbFoxmut (Fox-RRM*). Nature of the assay: EMSA; HiTS-Eq, 1 nM pool, 10 min; buffer printed only for the single-RNA assays: 10 mM Tris pH 7.5, 150 mM NaCl, 3.4 mM EDTA, 0.001% NP-40, 30 C. The following applies: tags: His6 N-terminal (pET28a); label: 5' 32P. Summed up:
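These values rest on relative association constants, computed from read-count changes of each RNA species versus the control reaction and normalised to the cognate motif. Reads came from free RNA recovered by 8% native PAGE after purified RbFox RRM (wild type or mutant) at increasing concentrations was equilibrated for 10 min in 50 µL with 1 nM of a 5′-radiolabelled pool with 7 randomized nucleotides and DNA-annealed flanks.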
A general note: Mobility shift assays separate free from complexed probe on a gel.
On to B1, for which the binding signal was 0.121 KA relative to UGCAUGU. Take B2: the binding signal was 0.0704 KA relative to UGCAUGU.

Consider B3, for which the binding signal is 0.0749 KA relative to UGCAUGU. In the case of B4, the binding signal is 0.0822 KA relative to UGCAUGU. The figure for B5 is 0.0471 KA relative to UGCAUGU. The figure for B6 is 0.115 KA relative to UGCAUGU. The figure for B7 is 0.133 KA relative to UGCAUGU. On to B8, for which the binding signal was 0.0713 KA relative to UGCAUGU. The figure for B9 is 0.114 KA relative to UGCAUGU; for B10 it is 0.149 KA relative to UGCAUGU; for B11 it is 0.136 KA relative to UGCAUGU. As for B12, the figure is 0.139 KA relative to UGCAUGU; as for B13, 0.18 KA relative to UGCAUGU. As for B14, the figure is 0.0655 KA relative to UGCAUGU; as for B15, 0.11 KA relative to UGCAUGU.

As to B16, the binding signal was 0.0831 KA relative to UGCAUGU. The figure for B17 is 0.113 KA relative to UGCAUGU. On to B18, for which the binding signal is 0.147 KA relative to UGCAUGU. Regarding B19, the binding signal is 0.0521 KA relative to UGCAUGU. Consider B20, for which the binding signal was 0.0918 KA relative to UGCAUGU.

B21: the binding signal is 0.194 KA relative to UGCAUGU. As for B22, the figure is 0.0582 KA relative to UGCAUGU; as for B23, 0.0792 KA relative to UGCAUGU; as for B24, 0.109 KA relative to UGCAUGU. Consider B25, for which the binding signal was 0.0536 KA relative to UGCAUGU. As for B26, the figure is 0.163 KA relative to UGCAUGU.

As to B27, the binding signal was 0.0893 KA relative to UGCAUGU.

As for B28, the binding signal was 0.0761 KA relative to UGCAUGU.

Turning to B29, the binding signal is 0.0767 KA relative to UGCAUGU. The figure for B30 is 0.15 KA relative to UGCAUGU; for B31 it is 0.11 KA relative to UGCAUGU.
